According to publication PMC9911399, “Two distinct binding modes provide the RNA-binding protein RbFox with extraordinary sequence specificity”:
Substitutions are numbered along the chain they refer to; changes in the protein carry UniProt numbers. The list shows a part of the results.

T1: RBFOX1 RRM (Homo sapiens, UniProt Q9NWB1 109-208)
T1 sequence: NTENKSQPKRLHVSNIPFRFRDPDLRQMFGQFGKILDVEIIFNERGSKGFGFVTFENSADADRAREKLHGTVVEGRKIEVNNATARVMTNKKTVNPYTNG

B1: AAACAUC (DNA:RNA)
RNA: GGGAGACCGGAAUUCAGAUUGUCCAAACAUCUUAAAUCCCGUCGUAGCCACCA
DNA 1: CAATCTGAATTCCGGTCTCCC
DNA 2: TGGTGGCTACGACGGGATT
B2: UUACCUG (DNA:RNA)
RNA: B1 RNA with A25U, A26U, A29C, C31G
DNA 1: CAATCTGAATTCCGGTCTCCC
DNA 2: TGGTGGCTACGACGGGATT
B3: GAUAUUA (DNA:RNA)
RNA: B1 RNA with A25G, A27U, C28A, A29U, C31A
DNA 1: CAATCTGAATTCCGGTCTCCC
DNA 2: TGGTGGCTACGACGGGATT
B4: UUCUUGU (DNA:RNA)
RNA: GGGAGACCGGAAUUCAGAUUGUCCUUCUUGUUUAAAUCCCGUCGUAGCCACCA
DNA 1: CAATCTGAATTCCGGTCTCCC
DNA 2: TGGTGGCTACGACGGGATT
B5: GCGCGAU (DNA:RNA)
RNA: B1 RNA with A25G, A26C, A27G, A29G, U30A, C31U
DNA 1: CAATCTGAATTCCGGTCTCCC
DNA 2: TGGTGGCTACGACGGGATT
B6: AUGAAAA (DNA:RNA)
RNA: B1 RNA with A26U, A27G, C28A, U30A, C31A
DNA 1: CAATCTGAATTCCGGTCTCCC
DNA 2: TGGTGGCTACGACGGGATT
B7: ACGAAUG (DNA:RNA)
RNA: B1 RNA with A26C, A27G, C28A, C31G
DNA 1: CAATCTGAATTCCGGTCTCCC
DNA 2: TGGTGGCTACGACGGGATT
B8: ACUCUUA (DNA:RNA)
RNA: B1 RNA with A26C, A27U, A29U, C31A
DNA 1: CAATCTGAATTCCGGTCTCCC
DNA 2: TGGTGGCTACGACGGGATT
B9: GUAUCCG (DNA:RNA)
RNA: B4 RNA with U25G, C27A, U29C, G30C, U31G
DNA 1: CAATCTGAATTCCGGTCTCCC
DNA 2: TGGTGGCTACGACGGGATT
B10: GAUGCUA (DNA:RNA)
RNA: B1 RNA with A25G, A27U, C28G, A29C, C31A
DNA 1: CAATCTGAATTCCGGTCTCCC
DNA 2: TGGTGGCTACGACGGGATT
B11: AGACGCA (DNA:RNA)
RNA: B1 RNA with A26G, A29G, U30C, C31A
DNA 1: CAATCTGAATTCCGGTCTCCC
DNA 2: TGGTGGCTACGACGGGATT
B12: CAACUAA (DNA:RNA)
RNA: B1 RNA with A25C, A29U, U30A, C31A
DNA 1: CAATCTGAATTCCGGTCTCCC
DNA 2: TGGTGGCTACGACGGGATT
B13: UAGCAUG (DNA:RNA)
RNA: B1 RNA with A25U, A27G, C31G
DNA 1: CAATCTGAATTCCGGTCTCCC
DNA 2: TGGTGGCTACGACGGGATT
B14: AGAGCAU (DNA:RNA)
RNA: B1 RNA with A26G, C28G, A29C, U30A, C31U
DNA 1: CAATCTGAATTCCGGTCTCCC
DNA 2: TGGTGGCTACGACGGGATT
B15: ACCGGCC (DNA:RNA)
RNA: B1 RNA with A26C, A27C, C28G, A29G, U30C
DNA 1: CAATCTGAATTCCGGTCTCCC
DNA 2: TGGTGGCTACGACGGGATT
B16: UGCUCGA (DNA:RNA)
RNA: B4 RNA with U26G, U29C, U31A
DNA 1: CAATCTGAATTCCGGTCTCCC
DNA 2: TGGTGGCTACGACGGGATT
B17: AUAGAAA (DNA:RNA)
RNA: B1 RNA with A26U, C28G, U30A, C31A
DNA 1: CAATCTGAATTCCGGTCTCCC
DNA 2: TGGTGGCTACGACGGGATT
B18: CAAGCUG (DNA:RNA)
RNA: B1 RNA with A25C, C28G, A29C, C31G
DNA 1: CAATCTGAATTCCGGTCTCCC
DNA 2: TGGTGGCTACGACGGGATT
B19: GCUGGAG (DNA:RNA)
RNA: GGGAGACCGGAAUUCAGAUUGUCCGCUGGAGUUAAAUCCCGUCGUAGCCACCA
DNA 1: CAATCTGAATTCCGGTCTCCC
DNA 2: TGGTGGCTACGACGGGATT
B20: ACAGGAU (DNA:RNA)
RNA: B19 RNA with G25A, U27A, G31U
DNA 1: CAATCTGAATTCCGGTCTCCC
DNA 2: TGGTGGCTACGACGGGATT

These binders were tested against T1, RBFOX1 RRM (assay: EMSA; HiTS-Eq, 1 nM pool, 10 min; buffer printed only for the single-RNA assays: 10 mM Tris pH 7.5, 150 mM NaCl, 3.4 mM EDTA, 0.001% NP-40, 30 C). Conditions: tags: His6 N-terminal (pET28a); label: 5' 32P.
Summary of the method: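 Purified RbFox RRM, wild type or mutant, was incubated for 10 min in 50 µL with 1 nM of a 5′-radiolabelled RNA pool carrying 7 randomized nucleotides, whose flanks were annealed to DNA oligonucleotides, over a series of increasing protein concentrations. Unbound RNA was resolved on 8% native PAGE, cut out, reverse-transcribed, barcoded by PCR and sequenced on an Illumina HiSeq 2500. Relative association constants were derived from changes in read counts for each RNA species versus the control reaction and normalised to the cognate motif.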

Row | Binder | binding signal
1 | B1 | 0.000413 KA relative to UGCAUGU
2 | B2 | 0.0109 KA relative to UGCAUGU
3 | B3 | 0.00195 KA relative to UGCAUGU
4 | B4 | 0.0153 KA relative to UGCAUGU
5 | B5 | 0.0163 KA relative to UGCAUGU
6 | B6 | 0.00408 KA relative to UGCAUGU
7 | B7 | 0.021 KA relative to UGCAUGU
8 | B8 | 0.00138 KA relative to UGCAUGU
9 | B9 | 0.00754 KA relative to UGCAUGU
10 | B10 | 0.0174 KA relative to UGCAUGU
11 | B11 | 0.013 KA relative to UGCAUGU
12 | B12 | 0.000567 KA relative to UGCAUGU
13 | B13 | 0.795 KA relative to UGCAUGU
14 | B14 | 0.00841 KA relative to UGCAUGU
15 | B15 | 0.00449 KA relative to UGCAUGU
16 | B16 | 0.0363 KA relative to UGCAUGU
17 | B17 | 0.00278 KA relative to UGCAUGU
18 | B18 | 0.00668 KA relative to UGCAUGU
19 | B19 | 0.0123 KA relative to UGCAUGU
20 | B20 | 0.00648 KA relative to UGCAUGU
